Measured values published in PubChem BioAssay AID588855 (National Center for Advancing Translational Sciences (NCATS), 2011).
About 5,000 (1.2%) of roughly 410,000 compounds were called active. The shares of active, inactive and inconclusive entries below differ from those in the screen. Calls come from the whole dose curve; as a rule, active = well fitted inhibition curve with a large enough effect; inconclusive = small, poorly fitted or top-dose-only effect; inactive = no such curve, though single readings can be large or run the other way. Potencies of inconclusive entries are doubtful fits and often do not repeat.

Assay: qHTS for Inhibitors of TGF-b; note: nearly all actives have a fitted effect of over 65% in size
Conditions: HepG2 CAGA-GFP TGF-b/SMAD3 reporter, GFP fluorescence, 18 h, TGF-beta stimulated, 500 pg/mL final; series mostly up to 46.1 µM
Procedure, shortened: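 Using HEPG2 CAGA-GFP reporter cells at 1000 cells/well, we pinned test compounds, stimulated with recombinant TGF-beta (500 pg/mL final) and measured total well GFP after 18 h.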
Potency is the fitted concentration of half-maximal effect; tags give direction and shape of the fitted curve.

Row | SMILES | Potency
1 | Cc1ccccc1NC(=O)/C=C1\SC(=O)NC1=O | inactive
2 | Cc1ccccc1C(=O)NCC(=O)NNC(=S)NC(=O)c1ccccc1C | inconclusive: 0.631 µM [inhibitor, full curve, poor fit]
3 | C[C@@H]1CC=C[C@H]2[C@H]1C(=O)N(Cc1ccccc1)[C@H]2c1ccc(F)c(-c2ccc(N(C)C)cc2)c1 | inactive
4 | Cc1c(C(=O)Nc2ccccn2)oc2ccccc12 | inactive
5 | Cc1cc(C)cc(OCCNS(=O)(=O)c2cccs2)c1 | inconclusive: 4.47 µM [inhibitor, single point]
6 | COc1ccccc1/C=C(/C(=O)OCC(=O)Nc1ccccc1C(C)C)c1ccccc1 | inconclusive: 31.6 µM [inhibitor, single point]
7 | c1ccc(-c2nnnc3ccccc23)cc1 | inconclusive: 5.62 µM [inhibitor, single point]
8 | Cn1c(SCc2ccc(F)cc2)nc2ccc(C(=O)NCc3ccccc3)cc21 | inconclusive: 8.91 µM [inhibitor, partial curve, poor fit]
9 | Cc1ccc(OCC(=O)Nc2ccc(S(=O)(=O)N(Cc3ccccc3)c3ccccc3)cc2)cc1 | inconclusive: 35.5 µM [inhibitor, single point]
10 | COc1cccc(Nc2ncnc3nc[nH]c23)c1 | inconclusive: 6.31 µM [inhibitor, partial curve]
11 | N#Cc1sc2nccc(Nc3ccccc3)c2c1N | active: 4.47 µM
12 | COc1ccc(C(=O)CC(Nc2ccc([N+](=O)[O-])cc2)c2ccc(Cl)cc2)cc1 (configuration not stated) | inconclusive: 15.8 µM [inhibitor, single point]
13 | CC(C)(C)OC(=O)NCCCC[C@H](NC(=O)c1nc[nH]c1C(=O)NCc1ccc(CNC(=O)OC(C)(C)C)cc1)C(=O)OC(C)(C)C | inconclusive: 8.91 µM [inhibitor, partial curve]
14 | CCCCN(C)S(=O)(=O)c1cc(-c2cc(C)no2)ccc1C | inactive
15 | O=c1c2cc(NC(=S)NC3CCCCC3)ccc2nc2n1CCCCC2 | inactive
16 | CCCCOc1ccc(C(O)(CCC)CCN2CCOCC2)cc1 (configuration not stated) | inconclusive: 11.2 µM [inhibitor, partial curve, poor fit]
17 | COc1ccc(S(=O)(=O)N2CCCCCC2)cc1C(=O)NCCc1ccccc1 | inconclusive: 10 µM [inhibitor, partial curve, poor fit]
18 | CN(C)C(=S)NC(=O)C12CC3CC(C)(CC(C)(C3)C1)C2 | inactive
19 | Cc1ccccc1-c1ccccc1CN1[C@@H](C(C)C)COCCS1(=O)=O | inconclusive: 35.5 µM [inhibitor, single point]
20 | Cc1ccc(-c2nc3ncccc3o2)cc1NC(=O)c1ccc(-c2cccc(Cl)c2C)o1 | inconclusive: 35.5 µM [inhibitor, single point]
21 | Cc1cc(C2(c3ccc(O)c(C)c3)OC(=O)c3ccccc32)ccc1O | inconclusive: 35.5 µM [inhibitor, single point]

Row | SMILES | Potency
22 | Cc1sc2nc(-c3ccccn3)[nH]c(=O)c2c1-c1ccccc1 | inconclusive: 11.2 µM [inhibitor, partial curve]
23 | O=C(N=Nc1c(O)n(Cc2ccccc2)c2ccccc12)c1ccc(O)cc1 | inconclusive: 22.4 µM [inhibitor, single point]
24 | Cc1sc2nc(CN3CCCC3)nc(N3CCC(C(N)=O)CC3)c2c1C | inconclusive: 35.5 µM [inhibitor, single point]
25 | CCCCn1c(-c2cccc3ccccc23)nc2cc3[nH]c(=O)c(C(C)C)nc3cc21 | inconclusive: 35.5 µM [inhibitor, partial curve, poor fit]
26 | CCC(=O)N1CCc2cc(Br)cc(S(=O)(=O)N(CC)Cc3ccccc3)c21 | inconclusive: 3.16 µM [inhibitor, partial curve, poor fit]
27 | COc1ccc(CCNC(=O)[C@H](CC(C)C)NC(=O)N2CCn3c2nc2ccccc23)cc1OC | inconclusive: 35.5 µM [inhibitor, single point]
28 | N=c1c(S(=O)(=O)c2ccccc2)cc2c(=O)n3ccccc3nc2n1C1CCCCC1 | inconclusive: 10 µM [inhibitor, single point]
29 | O=C(N/N=C/c1ccc[nH]1)c1sc2ccccc2c1Cl | inconclusive: 10 µM [inhibitor, partial curve, poor fit]
30 | Cc1ccc2c(c1)C(=O)C(=O)N2CC(=O)Nc1ccccc1NC(=O)c1ccccn1 | inconclusive: 10 µM [inhibitor, partial curve, poor fit]
31 | CN(C)C(=O)NC1c2ccccc2-c2ccccc21 | inactive
32 | O=C(CC1(O)C(=O)N(Cc2ccccc2)c2ccc(Br)cc21)c1ccccc1 (configuration not stated) | inconclusive: 8.91 µM [inhibitor, partial curve, poor fit]
33 | O=C(/C=C/c1cccnc1)c1cccc(O)c1 | inconclusive: 0.562 µM [inhibitor, full curve, poor fit]
34 | COc1ccccc1N1CCN(C(=O)c2cc3c(C)nc4ccccc4c3o2)CC1 | inconclusive: 25.1 µM [inhibitor, single point]
35 | O=C(Cc1ccccc1F)N1CCC(c2nc3c(nnn3Cc3cccc(Cl)c3)c(=O)[nH]2)CC1 | inconclusive: 14.1 µM [inhibitor, partial curve, poor fit]
36 | FC(F)(F)c1nnc2c(Sc3ccccn3)nc3ccccc3n12 | inconclusive: 4.47 µM [inhibitor, single point]
37 | c1ccc(Nc2nc(NCC3CCCO3)c3ccccc3n2)cc1 (configuration not stated) | inconclusive: 20 µM [inhibitor, single point]
38 | CCSc1nnc2n(-c3ccc(OC)cc3)c(=O)c3c4c(sc3n12)CCCC4 | inconclusive: 6.31 µM [inhibitor, partial curve, poor fit]
39 | COc1cc([N+](=O)[O-])ccc1NC(=O)CCCOc1cccc(C)c1 | inconclusive: 12.6 µM [inhibitor, partial curve]
40 | CC(OC(=O)CCC1CCCC1)C(=O)Nc1ccccc1[N+](=O)[O-] (configuration not stated) | inconclusive: 35.5 µM [inhibitor, single point]
41 | Oc1ccc2ccccc2c1C=Nc1cc(C(F)(F)F)ccc1N1CCCC1 | inconclusive: 35.5 µM [inhibitor, single point]
42 | CNC(=O)c1ccc2nc(-c3cccc(C)c3)c(-c3cccc(C)c3)nc2c1 | inconclusive: 35.5 µM [inhibitor, single point]

Row | SMILES | Potency
43 | CCOC(=O)c1c(NC(=O)C(C)N2CCN(C(=O)c3ccco3)CC2)sc2c1CCCC2 (configuration not stated) | inconclusive: 5.01 µM [inhibitor, partial curve, poor fit]
44 | O=C(Cc1cccc2ccccc12)NC(NC(=S)Nc1ccccc1Cl)C(Cl)(Cl)Cl (configuration not stated) | inconclusive: 35.5 µM [inhibitor, single point]
45 | CC(NC(=O)NC(=O)c1ccc(Cl)cc1Cl)C1CC1 (configuration not stated) | inconclusive: 35.5 µM [inhibitor, single point]
46 | CC1=C(C(=O)OCC2CCCCC2)C(c2cccc(F)c2F)CC(=O)N1 (configuration not stated) | inconclusive: 0.0891 µM [inhibitor, full curve, poor fit]
47 | O=C(c1ccco1)N1CCN(C(=O)c2snc3ccc(Cl)cc23)CC1 | inconclusive: 6.31 µM [inhibitor, single point]
48 | CC1C/C(=C\c2cccnc2)C(=O)/C(=C/c2cccnc2)C1 (configuration not stated) | inconclusive: 2.51 µM [inhibitor, full curve, poor fit]
49 | Cc1ccc(C(c2c(NC(=O)c3ccco3)sc(C)c2C)N2CCOCC2)cc1 (configuration not stated) | inactive
50 | COc1cccc(Cl)c1NC(=O)N1CCc2c([nH]c3ccccc23)C1C(F)(F)F (configuration not stated) | inconclusive: 20 µM [inhibitor, single point]
51 | O=[N+]([O-])c1cc(-n2cccc2)ccc1N1CCOCC1 | inconclusive: 31.6 µM [inhibitor, single point]
52 | Cc1ccc(NC(=O)CNC(=O)CC23CC4CC(CC(C4)C2)C3)c(O)c1 | inactive
53 | O=C(Nc1ccc(S(=O)(=O)N2CCCCC2)cc1)c1ccc(Cl)nc1 | inconclusive: 17.8 µM [inhibitor, partial curve, poor fit]
54 | O=C(Nc1ccc(Oc2nnc(-c3ccccc3)c3ccccc23)cc1)c1ccccc1 | inconclusive: 3.55 µM [inhibitor, full curve, poor fit]
55 | COc1ccc(-n2nnnc2C(c2ccccc2OC(F)(F)F)N2CCN(C/C=C/c3ccccc3)CC2)cc1 (configuration not stated) | inconclusive: 11.2 µM [inhibitor, partial curve]
56 | O=C(Nc1ccc2nc(-c3ccco3)c(-c3ccco3)nc2c1)NC1CC1 | inconclusive: 35.5 µM [inhibitor, single point]
57 | COc1ccc(CCNC(=O)CNS(=O)(=O)c2ccc(F)c(Cl)c2)cc1OC | inactive
58 | Cc1csc2c(N3CCN(C(=O)Nc4ccc(Cl)c(Cl)c4)CC3)ncnc12 | inconclusive: 35.5 µM [inhibitor, single point]
59 | COc1ccc(C(C(=O)NC2CCCCC2)N(C(=O)c2snc(C(N)=O)c2N)c2ccccc2OC)cc1 (configuration not stated) | inconclusive: 22.4 µM [inhibitor, partial curve, poor fit]
60 | Cc1ccc(N(CC(O)Cn2c3ccccc3c3ccccc32)S(C)(=O)=O)cc1 (configuration not stated) | inconclusive: 17.8 µM [inhibitor, partial curve, poor fit]
61 | COc1cccc(Nc2nc(C)cc(C)c2C(N)=O)c1 | inactive
62 | CC(Oc1ccc(Cl)cc1)C(=O)Nc1sccc1C(N)=O (configuration not stated) | inconclusive: 12.6 µM [inhibitor, single point]
